# Where “and” joins values, the source holds several entries; their conditions need not be identical. Equal entries are not always repeated. Screen size: about 420,000 compounds; about 64,000 (15%) were called active. The shares of active, inactive and inconclusive entries below differ from those in the screen. Calls follow the shape of the dose curve; as a rule, active = well fitted inhibition curve with a large enough effect; inconclusive = small, poorly fitted or top-dose-only effect; inactive = flat fitted curve, though single readings scatter. A potency beside an inconclusive call is a rough fit, not a confirmed value.
# Experiment: qHTS for Inhibitors of human tyrosyl-DNA phosphodiesterase 1 (TDP1): qHTS in cells in absence of CPT; also: nearly all actives have a fitted effect of over 55% in size
# Conditions: DT40 Tdp1-/- hTDP1 cells, no CPT, ATP luminescence, 48 h; activity change, negative = growth inhibition: at 46.2 µM (top of the series) unless noted
# Procedure, shortened: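 Readout: luminescence from CellTiter-Glo after 30 min in the dark at RT. Cells: DT40 Tdp1-/- with stable hTDP1, 400/well. Exposure: compounds alone, ≥48 hr, 37 °C.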
# % is scaled to controls: 0 for no effect and ±100 for the full control effect; potency is read from the fitted curve at half-maximal effect; tags tell the direction and shape of the fitted curve.
Compound,Potency,"activity change, negative = growth inhibition"
O=C(NCc1ccc2c(c1)OCO2)c1ccc(C2SCC(=O)N2Cc2ccco2)cc1 (stereo not drawn),"inconclusive: 18.4 µM [inhibitor, single point]",
O=C(CCN1CCc2ccccc2C1)Nc1ccc(F)cc1,"inconclusive: 20.6 µM [inhibitor, single point]",
COc1ccc(NS(=O)(=O)c2cc(NC(=O)C(CC(C)C)NC(N)=O)ccc2N2CCOCC2)cc1 (stereo not drawn),,inactive: 11.5%
Cc1ccccc1CN1CCN(S(=O)(=O)c2ccc(Cl)s2)CC1,"inconclusive: 29.1 µM [inhibitor, single point]",
COc1ccc(NC(=O)C(c2ccc(C#N)cc2)n2c(=O)c(-c3ccco3)nc3ccccc32)cc1 (stereo not drawn),,inactive: -28%
Cc1ccc(NC(=O)Cn2ccc([N+](=O)[O-])n2)cc1Cl,,inactive: -2.09%
CCOc1ccc(-c2nc(CN3CCCCC3CCn3cccn3)c(C)o2)cc1 (stereo not drawn),,inactive: -51.6%
COc1cccc(C2CC(c3ccc(C)cc3)=NN2C(=O)c2ccccc2F)c1OC (stereo not drawn),"inconclusive: 18.4 µM [inhibitor, single point]",
CCCCCC(=O)N/N=C(\C)c1ccc(N2CCCCC2)cc1,"inconclusive: 23.1 µM [inhibitor, single point]",
Cc1cc(C)nc(SC2CC(=O)N(c3ccc(Cl)cc3)C2=O)n1 (stereo not drawn),active: 20.6 µM,
COc1ccc(NC(=O)CN(C)CC(=O)Nc2cccc(S(=O)(=O)N(C)c3ccccc3)c2)cc1,"inconclusive: 23.1 µM [inhibitor, single point]",
Cc1cc2nc(CO)[nH]c2cc1C,,inactive: 3.76%
Cc1ccccc1Oc1ccc2c(c1)[C@@H]1C[C@H](N(C)C(=O)c3cccnc3)[C@H]([C@H](C)O)C(=O)N1CC2,"inconclusive: 25.9 µM [inhibitor, single point]",
CCCCn1c(N)c(N(CC)C(=O)C2CCC2)c(=O)[nH]c1=O,,inactive: 15.4%
C[C@@H](NC(=O)[C@@H]1Cc2ccccc2CN1)C(=O)NCC1CCCO1 (stereo partly drawn),,inactive: 6.72%
Cc1ccc(S(=O)(=O)N(CCC(=O)O)c2ccccc2)cc1,,inactive: -0.0039%
COc1cc(CNc2ccc(O)cc2)cc(Br)c1OCc1ccccc1,"inconclusive: 16.4 µM [inhibitor, partial curve, poor fit]",
Nc1c(C(=O)N/N=C/c2cccnc2)cnn1-c1ccccc1,,inactive: -11.6%
CCN1CCc2c(C#N)c(N3CCCCC3)nc(NCc3ccccc3)c2C1,active: 16.4 µM,
CC(=NC1CCCC1)c1c(C)[nH]n(-c2nc3ccccc3s2)c1=O,"inconclusive: 23.1 µM [inhibitor, single point]",
COc1ccc(-c2cc(C(=O)NN)[nH]n2)cc1OC,,inactive: 1.38%
CCOc1ccc(NC(=O)NCCN2CCN(c3cc(Cl)ccc3C)CC2)cc1,"inconclusive: 20.6 µM [inhibitor, single point]",
Cc1cc(C)cc(OCC(=O)O/N=C(\N)c2ccccc2Cl)c1,,inactive: -2.82%

Compound,Potency,"activity change, negative = growth inhibition"
Cn1ncc2c(=S)nc(Cl)[nH]c21,"inconclusive: 20.6 µM [inhibitor, single point]",
Cc1ccc(C)c(OCC(=O)Nc2sc3c(c2C#N)CCCC3)c1C,active: 9.2 µM,
CCC1CCCCN1CCCNC(=O)c1ccc2c(c1)c(C)c(C)n2CC (stereo not drawn),"inconclusive: 18.4 µM [inhibitor, single point]",
O=C(Nc1nc(-c2ccc(F)cc2)cs1)C1CCCO1 (stereo not drawn),"inconclusive: 18.4 µM [inhibitor, single point]",
CCOC(=O)c1c(Nc2ccc(C)c(C)c2)nnc(-c2ccccc2)c1-c1ccccc1,active: 16.4 µM,
CCCN1CCN(S(=O)(=O)c2ccc3c(c2)NC(=O)C(C)S3)CC1 (stereo not drawn),,inactive: -24.2%
COCC(=O)N(C)C[C@@H]1Oc2cc(-c3ccc(F)cc3)ccc2S(=O)(=O)N([C@H](C)CO)C[C@H]1C,"inconclusive: 9.2 µM [inhibitor, partial curve]",
CC(C)(C)N1CC(C(=O)Nc2ccc(S(=O)(=O)N3CCCCC3)cc2)CC1=O (stereo not drawn),active: 1.64 µM,
COc1ccc(C(=O)Nc2nc(C)c3cc4c(cc3n2)OCO4)cc1,"inconclusive: 29.1 µM [inhibitor, single point]",
CCOC(=O)C1(CCOc2ccccc2)CCN(Cc2cnc(C)s2)CC1,active: 20.6 µM,
Cc1cc(C)c(NC(=O)Cn2c(=O)n(CCC(C)C)c(=O)c3cccnc32)c(C)c1,"inconclusive: 6.51 µM [inhibitor, partial curve]",
N#CCN1C(=S)N=C(Nc2cccc(Cl)c2)C12CCCCC2,,inactive: -27.9%
Cc1ccc(NS(=O)(=O)c2ccc(CCC(=O)N3CCCC3)cc2)cc1,"inconclusive: 23.1 µM [inhibitor, single point]",
CC1(C)CC2CC(C)(CN2C(=S)Nc2ccccc2)C1 (stereo not drawn),"inconclusive: 16.4 µM [inhibitor, single point]",
CCCN1C(=O)C(=O)N(CC(=O)c2cc(C)n(C3CC3)c2C)C1=O,"inconclusive: 16.4 µM [inhibitor, single point]",
O=C(Nc1cccc(S(=O)(=O)NC2=NCCC2)c1)c1ccc(C(F)(F)F)cc1,"inconclusive: 13 µM [inhibitor, partial curve]",
Cc1cccc(OCCCN2CCOCC2)c1,,inactive: 8.89%
CC(C)(C)n1nnnc1C(c1ccccc1)N1CCCN(Cc2ccc(F)cc2)CC1 (stereo not drawn),"inconclusive: 16.4 µM [inhibitor, single point]",
CC(=O)N1CCN(C(=O)CCc2nc3ccccc3c(=O)[nH]2)CC1,,inactive: 7.91%
C=C(C)CN(CC)C(=O)c1ccc(OC2CCN(S(=O)(=O)N(C)C)CC2)cc1,"inconclusive: 29.1 µM [inhibitor, single point]",
CCOc1ccccc1C(=O)NCC(=O)NNC(=O)CN(C)S(=O)(=O)c1ccc(Cl)cc1,active: 11.6 µM,
Cc1ccc(S(=O)(=O)NCCC(=O)NC2CCN(Cc3ccccc3)CC2)cc1,"inconclusive: 11.6 µM [inhibitor, partial curve, poor fit]",
CCC1Nc2ncnc(N3CCc4ccccc4C3)c2N(Cc2ccc(Cl)cc2)C1=O (stereo not drawn),"inconclusive: 29.1 µM [inhibitor, single point]",

Compound,Potency,"activity change, negative = growth inhibition"
CCC/C=C/c1ccc(CN2C(CC(C)C)C(=O)N(Cc3cn(CCC4OCCO4)nn3)CCS2(=O)=O)cc1 (stereo not drawn),"inconclusive: 18.4 µM [inhibitor, single point]",
COc1ccc(C(=O)CC2(O)C(=O)N(Cc3ccccc3)c3ccc(Br)cc32)cc1 (stereo not drawn),"inconclusive: 29.1 µM [inhibitor, single point]",
COc1cc(/C=N/n2cnn(Cc3ccccc3Cl)c2=S)cc(OC)c1OC,"inconclusive: 29.1 µM [inhibitor, partial curve]",
CCc1ccc(C(=O)c2cn(CC(=O)NCCc3ccccc3)c3nc(C)ccc3c2=O)cc1,"inconclusive: 25.9 µM [inhibitor, single point]",
CCN(CC)CCOCCn1c(C)ccc1C,"inconclusive: 23.1 µM [inhibitor, single point]",
O=C1C(Cc2ccccc2)Nc2ncnc(N3CCN(c4ccccc4)CC3)c2N1Cc1ccc(Br)cc1 (stereo not drawn),"inconclusive: 16.4 µM [inhibitor, single point] and inconclusive: 29.1 µM [inhibitor, single point]",
CC1CCCC(C)N1C(=O)CSc1nc(N)cc(N)n1 (stereo not drawn),"inconclusive: 2.91 µM [inhibitor, full curve, poor fit]",
O=C(NCCc1ccccc1)c1ccc2c(c1)N(Cc1ccc(Cl)cc1)C(=O)c1ccccc1S2(=O)=O,active: 23.1 µM,
O=C(/C=C/c1ccc(O)cc1)c1ccc(NC2=C(N3CCCCC3)C(=O)c3ccccc3C2=O)cc1,active: 1.64 µM,
COc1ccc(Cn2c(SCc3ccc(C(=O)NCc4ccc(C)cc4)cc3)nc3cccnc32)cc1,"inconclusive: 20.6 µM [inhibitor, partial curve]",
COc1ccc(S(=O)(=O)N2CCC(c3cc(-c4cccc5ccccc45)n[nH]3)CC2)cc1,"inconclusive: 11.6 µM [inhibitor, partial curve, poor fit]",
Cc1ccc2[nH]c3c(c2c1)CN(C(=O)CN1CC(C)OC(C)C1)CC3 (stereo not drawn),"inconclusive: 29.1 µM [inhibitor, single point]",
CCCOc1ccc(S(=O)(=O)n2cc(F)c(=O)[nH]c2=O)cc1,"inconclusive: 29.1 µM [inhibitor, partial curve, poor fit]",
O=C(NCCSc1c[nH]c2ccccc12)c1ccc(Cl)cc1,"inconclusive: 16.4 µM [inhibitor, single point]",
Cc1ccc(C2=Nc3ccccc3N=C(c3ccc(F)cc3)C2)c(O)c1,"inconclusive: 2.31 µM [inhibitor, full curve]",
CCN(c1ccccc1C)S(=O)(=O)c1nnc(NC(=O)c2ccc(OC)c(OC)c2)s1,"inconclusive: 23.1 µM [inhibitor, single point]",
O=C(NCCOc1ccccc1)C1CCC(=O)N(CCc2ccc(Cl)cc2)C1 (stereo not drawn),"inconclusive: 7.31 µM [inhibitor, partial curve]",
CCCC1CCc2c(sc(NC(=O)OCC)c2C#N)C1 (stereo not drawn),active: 23.1 µM,
C#Cc1ccc(C(=O)Nc2ccc(N3CCC(C)CC3)c(C(N)=O)c2)cc1,"inconclusive: 5.17 µM [inhibitor, full curve]",
Cn1nc(C2CC2)cc1NC(=O)C1(C)CCN1C(=O)CC(c1ccccc1)c1ccccc1 (stereo not drawn),active: 13 µM,
CCOC(=O)c1sc(NC(=O)c2sc(C)nc2C)nc1C,"inconclusive: 23.1 µM [inhibitor, single point]",
COc1cc(/C=C2/C(=O)NN(c3ccccc3)C2=O)cc(Br)c1O,,inactive: 9.04%

# — PubChem BioAssay AID686978 (National Center for Advancing Translational Sciences (NCATS), 2013)
